# The other results are listed elsewhere or left out.
# B1: Blon2468mut (Bifidobacterium longum) (protein)
# chain: MTFIKQMMPRYVASMTAGIVAAAMAATCAFAPVANADAVSPTQETIQSTGRHFMVYYRAWRDVTMKGVNTDLPDDNWISMYDIPYGVDVVNIFSYVPSGQEEQAQPFYDKLKSDYAPYLHSRGIKLVRGIDYTGVAVNGFRTFMKEQNKTESEATEADYDAYAKQVIDKYMISVGLDGLDIDMQAHPNDADVKISDNVIRALSKHIGPKSAKPDTTMFLYDTNGSYLNPFKNVAECFDYVAYQQYGSSSDRTARAAADYQPYIGNEFVPGLTFPEEGDMNNRWYDATEPYEESHFYQVASYVREHNLGGMFVYALDRDGRNYDEDLRRIVPSNLLWTKTAIAESEGMALDTAKTAANHYLDRMSLRQVIDDNAASADKARDMVGKAANLYETNKAVLGGDYGEGFSNTYDPTLEAGLLGIDISVLQQQIDKSSEIIGADTAESDAKTALRMARDAAIDGLTGKIYTADQVSAWSQALKAALDATVPVPTPDSTDQNGNRDKVTNHKVQGQPKQLSATGISTDIIVAVGVTLAIAGVALSLSRKLS
# Legend:
# Assay in all cases: glycan array binding signal (z-score within array); higher = stronger binding
# Details in all cases: glycan notation: IUPAC condensed, linker removed
# Fuc(a1-2)Gal = target: Fuc(a1-2)Gal
# Outline: (§1)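 Negative Z-scores can be read as non-binding. The Z-score is calculated within each array and then averaged across arrays of one protein sequence at different concentrations or buffers and across linkers. Arrays, 3228 in all, were curated from the Consortium for Functional Glycomics database and kept only where the protein sequence was available.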
# Fuc(a1-2)Gal(b1-3)GalNAc = target: Fuc(a1-2)Gal(b1-3)GalNAc
# Outline: as §1
# [1] = target: Fuc(a1-2)Gal(b1-3)GalNAc(a1-3)[Fuc(a1-2)]Gal(b1-4)Glc
# Outline: as §1
# [2] = target: Fuc(a1-2)Gal(b1-3)GalNAc(a1-3)[Fuc(a1-2)]Gal(b1-4)GlcNAc
# Outline: as §1
# [3] = target: Fuc(a1-2)Gal(b1-3)GalNAc(b1-3)Gal
# Outline: as §1
# [4] = target: Fuc(a1-2)Gal(b1-3)GalNAc(b1-3)Gal(a1-4)Gal(b1-4)Glc
# Outline: as §1
# [5] = target: Fuc(a1-2)Gal(b1-3)GalNAc(b1-4)[Neu5Ac(a2-3)]Gal(b1-4)Glc
# Outline: as §1
# Fuc(a1-2)Gal(b1-3)GlcNAc = target: Fuc(a1-2)Gal(b1-3)GlcNAc
# Outline: as §1
# [6] = target: Fuc(a1-2)Gal(b1-3)GlcNAc(b1-2)Man(a1-3)[Fuc(a1-2)Gal(b1-3)GlcNAc(b1-2)Man(a1-6)]Man(b1-4)GlcNAc(b1-4)GlcNAc
# Outline: as §1
# [7] = target: Fuc(a1-2)Gal(b1-3)GlcNAc(b1-2)Man(a1-3)[Fuc(a1-2)Gal(b1-3)GlcNAc(b1-2)Man(a1-6)]Man(b1-4)GlcNAc(b1-4)[Fuc(a1-6)]GlcNAc
# Outline: as §1
# [8] = target: Fuc(a1-2)Gal(b1-3)GlcNAc(b1-3)Gal(b1-4)Glc
# Outline: as §1
# [9] = target: Fuc(a1-2)Gal(b1-3)GlcNAc(b1-3)GalNAc
# Outline: as §1
# [10] = target: Fuc(a1-2)Gal(b1-3)GlcNAc(b1-3)[Fuc(a1-2)Gal(b1-3)GlcNAc(b1-6)]GalNAc
# Outline: as §1
# [11] = target: Fuc(a1-2)Gal(b1-3)GlcNAc(b1-3)[Gal(b1-4)GlcNAc(b1-6)]Gal(b1-4)Glc
# Outline: as §1
# [12] = target: Fuc(a1-2)Gal(b1-3)GlcNAc(b1-3)[Neu5Ac(a2-6)Gal(b1-4)GlcNAc(b1-6)]Gal(b1-4)Glc
# Outline: as §1
# [13] = target: Fuc(a1-2)Gal(b1-3)GlcNAc6S
# Outline: as §1
# [14] = target: Fuc(a1-2)Gal(b1-3)[Fuc(a1-4)]GlcNAc
# Outline: as §1
# [15] = target: Fuc(a1-2)Gal(b1-3)[Fuc(a1-4)]GlcNAc(b1-2)Man(a1-3)[Fuc(a1-2)Gal(b1-3)[Fuc(a1-4)]GlcNAc(b1-2)Man(a1-3)]Man(b1-4)GlcNAc(b1-4)GlcNAc
# Outline: as §1
# [16] = target: Fuc(a1-2)Gal(b1-3)[Fuc(a1-4)]GlcNAc(b1-2)Man(a1-3)[Fuc(a1-2)Gal(b1-3)[Fuc(a1-4)]GlcNAc(b1-2)Man(a1-6)]Man(b1-4)GlcNAc(b1-4)[Fuc(a1-6)]GlcNAc(b1-4)[Fuc(a1-6)]GlcNAc
# Outline: as §1
# [17] = target: Fuc(a1-2)Gal(b1-3)[Fuc(a1-4)]GlcNAc(b1-3)[Fuc(a1-3)[Gal(b1-4)]GlcNAc(b1-6)]Gal(b1-4)Glc
# Outline: as §1
# [18] = target: Fuc(a1-2)Gal(b1-3)[Fuc(a1-4)]GlcNAc(b1-3)[Gal(b1-4)GlcNAc(b1-6)]Gal(b1-4)Glc
# Outline: as §1
# Fuc(a1-2)Gal(b1-4)Glc = target: Fuc(a1-2)Gal(b1-4)Glc
# Outline: as §1
# Fuc(a1-2)Gal(b1-4)Glc6S = target: Fuc(a1-2)Gal(b1-4)Glc6S
# Outline: as §1
# Fuc(a1-2)Gal(b1-4)GlcNAc = target: Fuc(a1-2)Gal(b1-4)GlcNAc
# Outline: as §1
# [19] = target: Fuc(a1-2)Gal(b1-4)GlcNAc(b1-2)Man
# Outline: as §1
# [20] = target: Fuc(a1-2)Gal(b1-4)GlcNAc(b1-2)Man(a1-3)[Fuc(a1-2)Gal(b1-4)GlcNAc(b1-2)Man(a1-6)]Man(b1-4)GlcNAc(b1-4)GlcNAc
# Outline: as §1
# [21] = target: Fuc(a1-2)Gal(b1-4)GlcNAc(b1-2)Man(a1-3)[Fuc(a1-2)Gal(b1-4)GlcNAc(b1-2)Man(a1-6)]Man(b1-4)GlcNAc(b1-4)[Fuc(a1-6)]GlcNAc
# Outline: as §1
# [22] = target: Fuc(a1-2)Gal(b1-4)GlcNAc(b1-2)[Fuc(a1-2)Gal(b1-4)GlcNAc(b1-4)]Man(a1-3)[Fuc(a1-2)Gal(b1-4)GlcNAc(b1-2)Man(a1-6)]Man(b1-4)GlcNAc(b1-4)GlcNAc
# Outline: as §1
# [23] = target: Fuc(a1-2)Gal(b1-4)GlcNAc(b1-3)Gal(b1-4)GlcNAc
# Outline: as §1
# [24] = target: Fuc(a1-2)Gal(b1-4)GlcNAc(b1-3)Gal(b1-4)GlcNAc(b1-2)Man(a1-3)[Fuc(a1-2)Gal(b1-4)GlcNAc(b1-3)Gal(b1-4)GlcNAc(b1-2)Man(a1-6)]Man(b1-4)GlcNAc(b1-4)GlcNAc
# Outline: as §1
binder,measurement,setting,value
B1,glycan array binding signal (z-score),Fuc(a1-2)Gal,-0.059
same,glycan array binding signal (z-score),Fuc(a1-2)Gal(b1-3)GalNAc,-0.061
same,glycan array binding signal (z-score),[1],-0.098
same,glycan array binding signal (z-score),[2],-0.05
same,glycan array binding signal (z-score),[3],-0.063
same,glycan array binding signal (z-score),[4],-0.073
same,glycan array binding signal (z-score),[5],-0.049
same,glycan array binding signal (z-score),Fuc(a1-2)Gal(b1-3)GlcNAc,-0.046
same,glycan array binding signal (z-score),[6],-0.036
same,glycan array binding signal (z-score),[7],-0.026
same,glycan array binding signal (z-score),[8],-0.083
same,glycan array binding signal (z-score),[9],-0.084
same,glycan array binding signal (z-score),[10],-0.065
same,glycan array binding signal (z-score),[11],-0.084
same,glycan array binding signal (z-score),[12],-0.067
same,glycan array binding signal (z-score),[13],-0.052
same,glycan array binding signal (z-score),[14],-0.055
same,glycan array binding signal (z-score),[15],-0.053
same,glycan array binding signal (z-score),[16],-0.074
same,glycan array binding signal (z-score),[17],-0.099
same,glycan array binding signal (z-score),[18],-0.071
same,glycan array binding signal (z-score),Fuc(a1-2)Gal(b1-4)Glc,-0.043
same,glycan array binding signal (z-score),Fuc(a1-2)Gal(b1-4)Glc6S,-0.041
same,glycan array binding signal (z-score),Fuc(a1-2)Gal(b1-4)GlcNAc,-0.053
same,glycan array binding signal (z-score),[19],-0.079
same,glycan array binding signal (z-score),[20],-0.068
same,glycan array binding signal (z-score),[21],-0.089
same,glycan array binding signal (z-score),[22],-0.045
same,glycan array binding signal (z-score),[23],-0.064
same,glycan array binding signal (z-score),[24],0.003
